This passage reports binding results from paper PMC8419691.

Protein sequences, listed by entry. Tags and fused reporters are not part of them. Lines headed by an entry give the natural chain unless they say otherwise; changes in a name come on top. Residues count along the entry.
UniProt Q04206: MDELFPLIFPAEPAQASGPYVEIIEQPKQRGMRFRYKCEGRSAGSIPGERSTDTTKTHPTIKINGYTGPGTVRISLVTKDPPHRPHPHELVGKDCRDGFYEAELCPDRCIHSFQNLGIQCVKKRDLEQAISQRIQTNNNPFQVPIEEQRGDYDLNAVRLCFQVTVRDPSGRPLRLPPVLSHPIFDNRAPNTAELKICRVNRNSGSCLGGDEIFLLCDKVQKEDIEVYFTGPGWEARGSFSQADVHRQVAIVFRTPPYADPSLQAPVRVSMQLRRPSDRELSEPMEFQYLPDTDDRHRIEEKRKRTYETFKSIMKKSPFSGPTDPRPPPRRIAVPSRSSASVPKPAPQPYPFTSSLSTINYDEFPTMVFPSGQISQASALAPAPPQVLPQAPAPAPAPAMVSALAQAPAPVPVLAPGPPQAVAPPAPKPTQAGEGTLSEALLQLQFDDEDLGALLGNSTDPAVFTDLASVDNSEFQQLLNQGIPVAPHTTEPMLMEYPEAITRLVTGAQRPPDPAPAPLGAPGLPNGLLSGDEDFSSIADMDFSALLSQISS
UniProt Q12834: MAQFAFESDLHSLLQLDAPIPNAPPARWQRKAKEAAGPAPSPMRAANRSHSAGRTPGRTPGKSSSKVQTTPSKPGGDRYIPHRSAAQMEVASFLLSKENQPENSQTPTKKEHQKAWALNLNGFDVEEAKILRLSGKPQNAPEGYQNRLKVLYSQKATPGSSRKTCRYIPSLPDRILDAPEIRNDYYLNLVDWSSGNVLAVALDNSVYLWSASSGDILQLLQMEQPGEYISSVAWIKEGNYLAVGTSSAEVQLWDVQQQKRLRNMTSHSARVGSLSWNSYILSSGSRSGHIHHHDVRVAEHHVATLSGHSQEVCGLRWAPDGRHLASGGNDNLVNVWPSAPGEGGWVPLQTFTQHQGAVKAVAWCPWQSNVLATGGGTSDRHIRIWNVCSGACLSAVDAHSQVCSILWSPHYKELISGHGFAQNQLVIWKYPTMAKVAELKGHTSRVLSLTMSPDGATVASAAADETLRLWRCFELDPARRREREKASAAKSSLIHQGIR
Myc-CDC20 1-170 fragment (lacking WD40 domain): residues 1-170 of Q12834
Myc-CDC20 171-499 fragment (containing WD40 domain): residues 171-499 of Q12834
UniProt Q9UJX6: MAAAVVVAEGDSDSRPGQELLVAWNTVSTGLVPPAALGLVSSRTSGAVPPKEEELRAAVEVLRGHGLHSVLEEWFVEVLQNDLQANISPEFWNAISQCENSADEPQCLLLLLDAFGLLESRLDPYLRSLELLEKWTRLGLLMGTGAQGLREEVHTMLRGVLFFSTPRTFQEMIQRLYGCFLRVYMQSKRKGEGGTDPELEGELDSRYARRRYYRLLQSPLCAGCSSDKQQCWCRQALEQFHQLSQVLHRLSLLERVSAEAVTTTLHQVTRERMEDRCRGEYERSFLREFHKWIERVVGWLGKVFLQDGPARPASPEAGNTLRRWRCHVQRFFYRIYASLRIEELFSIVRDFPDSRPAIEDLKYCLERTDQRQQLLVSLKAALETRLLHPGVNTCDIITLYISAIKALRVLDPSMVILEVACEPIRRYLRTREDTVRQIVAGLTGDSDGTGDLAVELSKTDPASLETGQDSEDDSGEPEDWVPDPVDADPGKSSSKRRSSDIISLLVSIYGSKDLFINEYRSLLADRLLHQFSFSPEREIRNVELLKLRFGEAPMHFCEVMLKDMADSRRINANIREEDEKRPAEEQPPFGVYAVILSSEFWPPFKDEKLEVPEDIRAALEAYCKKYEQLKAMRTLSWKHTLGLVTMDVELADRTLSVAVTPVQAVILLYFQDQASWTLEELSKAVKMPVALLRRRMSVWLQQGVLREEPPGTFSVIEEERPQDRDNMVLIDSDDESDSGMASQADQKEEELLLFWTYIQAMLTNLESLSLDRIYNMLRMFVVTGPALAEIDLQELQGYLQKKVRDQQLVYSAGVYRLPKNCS
UniProt Q9NYG5: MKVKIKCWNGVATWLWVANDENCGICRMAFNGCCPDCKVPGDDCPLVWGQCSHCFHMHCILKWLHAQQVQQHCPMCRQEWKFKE
UniProt Q9JJ66: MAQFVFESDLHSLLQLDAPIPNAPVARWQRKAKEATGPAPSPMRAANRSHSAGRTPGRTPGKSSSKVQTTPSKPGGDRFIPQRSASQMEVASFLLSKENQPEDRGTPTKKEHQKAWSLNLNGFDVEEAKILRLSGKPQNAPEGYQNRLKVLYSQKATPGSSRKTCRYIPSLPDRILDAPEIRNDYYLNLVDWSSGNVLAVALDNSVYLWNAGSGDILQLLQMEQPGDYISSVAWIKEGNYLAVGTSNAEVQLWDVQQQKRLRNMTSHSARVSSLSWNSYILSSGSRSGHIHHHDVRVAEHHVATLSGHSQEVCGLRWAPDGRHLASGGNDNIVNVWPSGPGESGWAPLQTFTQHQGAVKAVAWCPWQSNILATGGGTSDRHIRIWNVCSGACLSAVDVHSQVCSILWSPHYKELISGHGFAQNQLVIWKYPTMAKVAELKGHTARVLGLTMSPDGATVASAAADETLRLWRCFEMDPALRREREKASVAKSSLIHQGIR
UniProt Q04207: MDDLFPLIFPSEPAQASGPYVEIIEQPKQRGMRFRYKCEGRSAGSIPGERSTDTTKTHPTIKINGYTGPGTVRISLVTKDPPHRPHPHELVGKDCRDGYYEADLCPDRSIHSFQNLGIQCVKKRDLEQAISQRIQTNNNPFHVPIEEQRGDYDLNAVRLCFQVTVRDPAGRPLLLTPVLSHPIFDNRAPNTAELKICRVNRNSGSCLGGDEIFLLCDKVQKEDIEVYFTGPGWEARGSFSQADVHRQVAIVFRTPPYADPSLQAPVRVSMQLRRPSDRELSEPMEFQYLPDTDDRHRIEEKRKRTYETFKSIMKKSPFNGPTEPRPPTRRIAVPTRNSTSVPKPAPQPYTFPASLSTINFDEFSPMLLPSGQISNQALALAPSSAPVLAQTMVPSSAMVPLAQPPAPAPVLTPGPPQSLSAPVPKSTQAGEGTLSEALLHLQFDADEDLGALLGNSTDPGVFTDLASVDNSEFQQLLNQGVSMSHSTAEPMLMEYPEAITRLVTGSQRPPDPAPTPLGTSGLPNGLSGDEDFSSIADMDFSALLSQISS

In one assay the target is Flag-tagged p65 (UniProt Q04206). Put plainly: co-IP; HEK293T whole-cell lysates in Nonidet P-40 buffer; 4-6 µg antibody, 4°C 8-12 h, Protein A/G-agarose beads; ectopic and/or endogenous proteins; for APC11 with p65 also in NC, CDC20sh and CDH1sh cells.
The target of a further assay is GST-p65 (UniProt Q04206). The assay is described as follows: pull-down; GST fusion protein on glutathione sepharose incubated with HEK293T whole-cell lysate; washes with 0.1 mM EDTA, 0.5% Nonidet P-40, 20 mM Tris pH 7.4, 300 mM NaCl; immunoblot with anti-CDC20 or anti-p65; only the target purified.
The next assay deals with Myc-tagged CDC20 (UniProt Q12834). Put plainly: co-IP; HEK293T whole-cell lysates in Nonidet P-40 buffer; 4-6 µg antibody, 4°C 8-12 h, Protein A/G-agarose beads; ectopic and/or endogenous proteins; for APC11 with p65 also in NC, CDC20sh and CDH1sh cells.
Assay [1] has as its target endogenous CDC20 (human (endogenous in HEK293T and hBMSCs)) (UniProt Q12834). Described as above.
Assay [2] has the same target. The assay is described as follows: co-IP; hBMSC lysates, endogenous proteins; Nonidet P-40 buffer, Protein A/G-agarose beads.
The target in a further assay is APC2 (human) (UniProt Q9UJX6). Put plainly: co-IP; HEK293T whole-cell lysates in Nonidet P-40 buffer; 4-6 µg antibody, 4°C 8-12 h, Protein A/G-agarose beads; ectopic and/or endogenous proteins; for APC11 with p65 also in NC, CDC20sh and CDH1sh cells.
Assay [3] concerns the target Myc-CDC20 1-170 fragment (lacking WD40 domain) (UniProt Q12834). The assay is described as above.
In assay [4] the target is Myc-CDC20 171-499 fragment (containing WD40 domain) (UniProt Q12834). The description is as above.
For assay [5], the target named is endogenous APC11 (human (endogenous in HEK293T)) (UniProt Q9NYG5). The assay is described as above.
The target of a further assay is GST-CDC20 (UniProt Q12834). The assay is described as follows: pull-down; GST fusion protein on glutathione sepharose incubated with HEK293T whole-cell lysate; washes with 0.1 mM EDTA, 0.5% Nonidet P-40, 20 mM Tris pH 7.4, 300 mM NaCl; immunoblot with anti-CDC20 or anti-p65; only the target purified.
For assay [6], the target named is endogenous CDC20 in mouse BMSCs (mouse (endogenous in mBMSCs)) (UniProt Q9JJ66). Put plainly: co-IP; mouse BMSC lysates, endogenous proteins; Nonidet P-40 buffer, Protein A/G-agarose beads.

No constants are given. Whether binding was seen depends on the method and setting. Binding seen in cells or lysates may run through a third protein. Some entries that bind do so weakly or less than the wild type.

For “endogenous CDC20 (from UniProt Q12834 1-499)”, the binding entry with Flag-tagged p65 and in the assay with GST-p65 was “binds” throughout.
As to “Flag-tagged p65 (from UniProt Q04206 1-551)”, the binding result in the assay with Myc-tagged CDC20 is “binds”.
Consider “Flag-p65 311-551 fragment (lacking RHD domain) (from UniProt Q04206 311-551) (domain or fragment)”, for which the binding entry in assay [1] is on record as “no binding”.
“endogenous p65 (from UniProt Q04206 1-551)”: the binding result in assay [2] is “binds”; with APC2 (human) it was “no binding”; in assay [3], “no binding”; in assay [4], “binds”; with Myc-tagged CDC20, “binds”; in [5], “binds”. Also, the binding result (in assay [1]; with GST-CDC20) was “binds” throughout.
Turning to “endogenous p65 in mouse BMSCs (from UniProt Q04207 1-549)”, the binding result in assay [6] is “binds”.
Consider “Flag-p65 1-310 fragment (containing RHD domain) (from UniProt Q04206 1-310) (domain or fragment)”, for which the binding result in assay [4] and in [1] was “binds” each time.
